# According to PubChem BioAssay AID2708 (National Center for Advancing Translational Sciences (NCATS), 2010):
# This list was built around the results that the source calls inconclusive (neither active nor inactive); the mix of calls is not that of the screen. Potencies of inconclusive entries are left out as doubtful fits. Active and inactive are the calls of the source. Calls come from the whole dose curve; as a rule, active = well fitted inhibition curve with a large enough effect; inconclusive = small, poorly fitted or top-dose-only effect; inactive = no such curve, though single readings can be large or run the other way.
# Target: ATP-dependent DNA helicase Q1 (Homo sapiens) (UniProt P46063)
# Sequence of UniProt P46063 (P46063 whole entry, looked up): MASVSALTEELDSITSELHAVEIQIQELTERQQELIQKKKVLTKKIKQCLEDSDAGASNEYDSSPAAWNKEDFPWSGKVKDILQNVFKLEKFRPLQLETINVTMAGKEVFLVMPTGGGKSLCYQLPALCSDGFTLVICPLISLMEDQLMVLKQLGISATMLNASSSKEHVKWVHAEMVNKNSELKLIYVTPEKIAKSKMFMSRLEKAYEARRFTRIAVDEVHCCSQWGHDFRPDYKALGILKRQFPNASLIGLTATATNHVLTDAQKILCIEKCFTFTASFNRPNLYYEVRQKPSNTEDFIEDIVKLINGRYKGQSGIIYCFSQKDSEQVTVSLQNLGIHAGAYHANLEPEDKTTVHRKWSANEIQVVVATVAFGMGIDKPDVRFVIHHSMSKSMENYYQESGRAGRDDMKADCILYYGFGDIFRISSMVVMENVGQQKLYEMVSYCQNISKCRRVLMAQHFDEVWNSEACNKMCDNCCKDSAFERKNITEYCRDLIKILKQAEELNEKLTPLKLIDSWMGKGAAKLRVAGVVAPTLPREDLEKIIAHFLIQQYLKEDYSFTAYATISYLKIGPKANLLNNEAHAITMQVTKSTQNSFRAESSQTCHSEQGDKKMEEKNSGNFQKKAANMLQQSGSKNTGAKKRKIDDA
# Assay: Confirmation qHTS Assay for Inhibitors of RecQ-Like Dna Helicase 1 (RECQ1); note: nearly all actives have a fitted effect of over 45% in size
# Conditions: RECQ1 helicase DNA unwinding, fluorescence; series mostly up to 229 µM; activity change, negative = inhibition: at the top concentration
# Procedure, shortened: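 50 nM RECQ1T1 preincubated 15 min with compound in Tris pH 8.0 buffer with MgCl2, DTT, Tween-20 and 2.5 ug/ml poly(dI-dC); started with 200 nM TAMRA/BHQ-2 forked duplex and 2 mM ATP. Unwinding read as fluorescence (525/598 nm), two reads 2 h apart.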
# % is set by controls: 0 for no effect and ±100 for the full control effect; potency is the fitted concentration of half-maximal effect; tags give direction and shape of the fitted curve.
Compound,Potency,"activity change, negative = inhibition"
CC1(C(=O)O)NCCc2cc(O)c(O)cc21 (stereo not given),"inconclusive [inhibitor, full curve]",–
C=C1c2cccc(O)c2C(O)=C2C(=O)[C@@]3(O)C(O)=C(C(N)=O)C(=O)[C@@H](N(C)C)[C@@H]3[C@@H](O)[C@H]12,"inconclusive [inhibitor, partial curve, poor fit]",–
O=C(Nn1c(Cc2ccccc2)nc2ccccc2c1=O)c1c(O)c2cccc3c2n(c1=O)CCC3,"inconclusive [inhibitor, single point]",–
CC1Cc2ccccc2N1C(=O)CSc1nnc(-c2ccc(S(=O)(=O)N3CCOCC3)cc2)n1C (stereo not given),–,inactive: -0.489%
O=C(O)CCn1c(SCc2cc(=O)n3ccccc3n2)nc2ccsc2c1=O,–,inactive: 1.05%
